Laboratory results from PubChem BioAssay AID1468 (National Center for Advancing Translational Sciences (NCATS), 2008).
Among all 280,000 compounds or so, about 1,100 (0.39%) were called active. The shares of active, inactive and inconclusive entries below differ from those in the screen. Calls come from the whole dose curve; as a rule, active = well fitted inhibition curve with a large enough effect; inconclusive = small, poorly fitted or top-dose-only effect, or effect the other way; inactive = flat fitted curve, though single readings scatter. No potency is given beside an inconclusive call; the fits are too rough.

Biological target: Microtubule-associated protein tau (Homo sapiens) (UniProt P10636)
UniProt P10636, sequence (P10636 whole entry, looked up): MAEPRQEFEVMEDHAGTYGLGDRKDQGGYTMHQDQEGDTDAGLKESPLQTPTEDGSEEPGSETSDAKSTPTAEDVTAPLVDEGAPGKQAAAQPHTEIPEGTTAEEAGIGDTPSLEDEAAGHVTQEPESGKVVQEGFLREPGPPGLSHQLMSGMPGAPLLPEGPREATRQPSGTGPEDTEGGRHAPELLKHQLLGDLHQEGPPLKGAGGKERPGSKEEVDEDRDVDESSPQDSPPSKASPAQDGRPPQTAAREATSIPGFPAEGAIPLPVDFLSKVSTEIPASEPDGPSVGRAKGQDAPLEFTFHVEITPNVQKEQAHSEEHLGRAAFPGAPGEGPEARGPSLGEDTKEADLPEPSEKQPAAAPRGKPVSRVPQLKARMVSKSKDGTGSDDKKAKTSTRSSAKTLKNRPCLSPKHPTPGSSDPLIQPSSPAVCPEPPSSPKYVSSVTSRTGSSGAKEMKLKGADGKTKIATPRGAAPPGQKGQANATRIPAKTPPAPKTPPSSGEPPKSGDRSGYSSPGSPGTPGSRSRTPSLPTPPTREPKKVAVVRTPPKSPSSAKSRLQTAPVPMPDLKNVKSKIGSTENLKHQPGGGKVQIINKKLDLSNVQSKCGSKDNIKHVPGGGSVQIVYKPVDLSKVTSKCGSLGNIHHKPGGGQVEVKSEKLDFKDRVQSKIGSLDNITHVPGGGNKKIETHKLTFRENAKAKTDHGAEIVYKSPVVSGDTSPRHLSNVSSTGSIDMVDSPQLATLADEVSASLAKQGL
Test: qHTS for Inhibitors of Tau Fibril Formation, Fluorescence Polarization; note: nearly all actives have a fitted effect of over 55% in size
Settings: K18 P301L tau heparin fibrillization, Alexa594 FP, 6 h; series mostly up to 57.7 µM; activity, negative = inhibition: at the top concentration
Summary of the method: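 Recombinant K18 P301L […], labeled with Alexa 594 at 0.24 uM over 15 uM unlabeled; heparin inducer 20 uM final; 37 C, 6 hr; FP endpoint.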
% is set by controls: 0 for no effect and ±100 for the full control effect; potency is the fitted concentration of half-maximal effect; tags give direction and shape of the fitted curve.

| SMILES | Potency | activity, negative = inhibition |
| --- | --- | --- |
| Cc1nn(-c2ccccc2)c(C)c1/C=N/NC(=O)c1cc(-c2ccc(Br)s2)[nH]n1 | inconclusive [inhibitor, partial curve, poor fit] | – |
| O=C(CSc1nc2cc([N+](=O)[O-])ccc2n1-c1ccccc1)NCc1ccc2c(c1)OCO2 | – | inactive: 2.31% |
| COc1ccc2[nH]cc(C(=O)CN3CCN(C4CCCCC4)CC3)c2c1 | – | inactive: 7.2% |
| Cc1ccc([C@@H]2C3COCC=C3C(C#N)=C(N)C2(C#N)C#N)o1 (some centres not stated) | inconclusive [inhibitor, single point] | – |
| CC(=O)OC/C=C(C)/C=C/C=C(C)/C=C/C1=C(C)CCCC1(C)C | inconclusive [inhibitor, single point] | – |
| O=C(COC(=O)c1cc(=O)[nH]c2ccccc12)Nc1nc(-c2cccc(Br)c2)cs1 | inconclusive [inhibitor, partial curve, poor fit] | – |
| CCCCOc1ccc(C(=O)NCCc2csc3nc(-c4ccccc4F)nn23)cc1 | – | inactive: 0.415% |
| O=C(N/N=C/C=C\c1ccco1)c1cccs1 | inconclusive [inhibitor, single point] | – |
| Cc1cc(NC(=O)CSc2ncc(C(=O)Nc3ccccc3)c(=O)n2C)no1 | – | inactive: -13.2% |
| CNC(=O)COC(=O)c1ccc(-c2nc3ccccc3s2)s1 | – | inactive: 1.75% |
| CCOC(=S)SCC(=O)Nc1nc(-c2ccc(Br)cc2)cs1 | inconclusive [inhibitor, single point] | – |
| CCC(NC(=O)NCc1ccccc1)(C(F)(F)F)C(F)(F)F | inconclusive [inhibitor, full curve, poor fit] | – |
| Cc1onc(-c2ccccc2)c1CNC(=O)Nc1ccc(C(F)(F)F)cc1 | inconclusive [inhibitor, partial curve] | – |
| Cc1ccccc1C(=O)Nc1ccc(C(=O)OCc2cc(=O)n3c4c(sc3n2)CCCC4)cc1 | – | inactive: -6.49% |
| NNC(=O)c1[nH]c2ccc(Br)cc2c1-c1ccccc1 | – | inactive: -0.483% |
| CC(=O)c1sc(NC(=O)c2c(F)cccc2F)nc1-c1ccccc1 | – | inactive: 2.47% |
| CCOc1cc(C(=O)Nc2ccc(F)cc2)cc(Br)c1OC | inconclusive [inhibitor, single point] | – |
| CC(=O)NNc1nc(-c2ccccc2)cs1 | inconclusive [inhibitor, single point] | – |
| CCOC(=O)C(C)/C(C)=N\Nc1ccc([N+](=O)[O-])cc1[N+](=O)[O-] (configuration not stated) | inconclusive [activator, single point] | – |
| COC(=O)COc1ccc2c(-c3cccc([N+](=O)[O-])c3)cc(=O)oc2c1 | – | inactive: -4.55% |
| CCOC(=O)COc1ccc(C(=O)c2ccccc2)c(O)c1 | – | inactive: 6.4% |
| CCN1CCOC(=O)C1CC(=O)Nc1cc(Cl)ccc1OC (configuration not stated) | – | inactive: -10.6% |
| Cn1c(=O)c(C(=O)CN2CCCc3ccccc32)c(N)n(Cc2ccccc2)c1=O | inconclusive [inhibitor, single point] | – |
| COc1ccc(-c2csc(C3=C(O)CN(Cc4ccc(Cl)cc4)C3=N)n2)cc1OC | inconclusive [activator, partial curve] | – |

| SMILES | Potency | activity, negative = inhibition |
| --- | --- | --- |
| COC(=O)C1=C(C)N(CCC2=CCCCC2)C(=O)C1 | inconclusive [inhibitor, single point] | – |
| O=C(/C=C\Nc1ccccc1Br)c1ccc2c(c1)OCO2 | inconclusive [inhibitor, single point] | – |
| Cc1ccc(NC(CNS(=O)(=O)c2ccc(Cl)cc2)c2ccccc2)cc1 (configuration not stated) | inactive | – |
| O=c1[nH]c2ccccc2nc1/C=C/c1ccc(O)cc1 | – | inactive: 4.24% |
| CCCCCCC(=O)Nc1nc(C)c(-c2csc(Nc3cc(OC)ccc3OC)n2)s1 | inconclusive [activator, full curve] | – |
| Nc1ccccc1C(=O)NNc1c2ccccc2nc2ccccc12 | – | inactive: 3.04% |
| Cc1cc(-c2nc(C)c(-c3nnc(SCC(=O)Nc4cc(Cl)cc(Cl)c4)n3C)s2)no1 | inconclusive [inhibitor, full curve, poor fit] | – |
| CCOC(=O)c1cnc(NCc2ccc(Cl)cc2)c2ccccc12 | inconclusive [inhibitor, partial curve] | – |
| CC1CCCC(C)N1C(=O)CSc1nnc(CSc2ncccn2)n1C (configuration not stated) | – | inactive: 2.38% |
| CC(/C=N/NC(=O)c1cc(-c2cccs2)[nH]n1)=C\c1ccccc1 | inconclusive [inhibitor, single point] | – |
| Nc1cc(N)c(OCC(F)(F)F)cc1OCC(F)(F)F | active: 12.6 µM | – |
| O=[N+]([O-])c1cnc(Sc2ccncn2)s1 | inconclusive [inhibitor, partial curve] | – |
| Cc1[nH]c2ccccc2c1/C=N/NC(=O)c1cc(C(C)(C)C)[nH]n1 | inconclusive [activator, single point] | – |
| COc1cc(C(=O)Nc2nc3ccccc3s2)ccc1OCc1c(C)noc1C | inconclusive [inhibitor, single point] | – |
| Cc1ccc(NC(=O)NC(C)c2c(-n3cccc3)sc(C)c2C)cc1F (configuration not stated) | inconclusive [inhibitor, partial curve] | – |
| O=C(Nc1cccc(C(F)(F)F)c1)c1cccnc1NCCc1ccccc1 | active: 14.1 µM | – |
| COCCN(C(=S)Nc1ccccc1OC)C(C)c1cccs1 (configuration not stated) | inconclusive [inhibitor, single point] | – |
| N#CCCN(C(=O)CSc1ccc2c(c1)OCCO2)c1ccc(F)cc1 | inconclusive [inhibitor, partial curve] | – |
| CCN(C(=O)CSc1nc2ccccc2n1Cc1ccccc1C#N)c1ccccc1 | – | inactive: 5.23% |
| Cc1ccc(CNC(=O)CN2C(=O)C3(OCCCO3)c3ccccc32)cc1 | – | inactive: -2.33% |
| O=C(CCc1ccccc1)Nc1ncn[nH]1 | – | inactive: 3% |
| COc1ccc(NC(=O)CSc2nc3[nH]ncc3c(=O)n2-c2ccccc2OC)cc1OC | – | inactive: 6.86% |
| COc1ccc(OCC(=O)Nc2ccc(Cl)c(-c3nc4ncccc4o3)c2)cc1 | inconclusive [inhibitor, partial curve, poor fit] | – |
| COC(=O)c1cc2sc(Cl)cc2n1CC(=O)Nc1cc(OC)cc(OC)c1 | inconclusive [inhibitor, partial curve] | – |

| SMILES | Potency | activity, negative = inhibition |
| --- | --- | --- |
| CCCCc1ccc(C2C(C#N)=C(N)SC(N)=C2C#N)s1 | inconclusive [inhibitor, single point] | – |
| O=C(OC1CCOC1=O)c1cc(-c2ccc(Br)cc2)nc2ccccc12 (configuration not stated) | inconclusive [inhibitor, partial curve] | – |
| O=C(Nc1ccccc1F)c1nc(SCc2ccccc2F)ncc1Cl | inconclusive [inhibitor, partial curve] | – |
| O=C(Cc1ccc(Br)cc1)Nc1cccc(Cl)c1 | inconclusive [inhibitor, single point] | – |
| CCc1cccc(NC(=O)c2cc3c(s2)-c2ccccc2OC3)c1 | inconclusive [inhibitor, partial curve] | – |
| O=C(CN1C(=O)c2cccc3cccc1c23)Nc1cccc(F)c1 | inconclusive [inhibitor, single point] | – |
| CCOc1ccc(C2C3=C(CCCC3=O)Nc3ccc4ncccc4c32)cc1 (configuration not stated) | – | inactive: 12.5% |
| Cc1cccc(NC(=O)CN2NS(=O)(=O)c3ccccc3C2=O)c1 | – | inactive: -1.02% |
| Cc1ccc(S(=O)(=O)N2CCC(=O)N(CCO)CC2)cc1 | – | inactive: 0.481% |
| CN(CC(=O)Nc1ccc(Br)cc1)S(=O)(=O)c1cccc2nsnc12 | inconclusive [inhibitor, partial curve] | – |
| COc1ccccc1N1CCN(C(=O)c2cc(-c3cccc(Cl)c3)on2)CC1 | – | inactive: 16.6% |
| COc1ccccc1NC(=O)CSc1nc2c(oc3ccccc32)c(=O)n1-c1ccccc1F | inconclusive [inhibitor, partial curve] | – |
| CN1CCN(C2=C(Cl)C(=O)N(c3cccc(Cl)c3)C2=O)CC1 | inconclusive [inhibitor, single point] | – |
| COCCn1c(SCC(=O)c2c[nH]c3ccccc23)nc2cc(C(=O)NCC(C)C)ccc2c1=O | inconclusive [inhibitor, partial curve, poor fit] | – |
| COc1ccc(N)cc1-n1c(C)ccc1C | inconclusive [inhibitor, partial curve] | – |
| Cc1ccc(N(CC(=O)Nc2ccc(OC(F)(F)F)cc2)S(=O)(=O)c2c(C)noc2C)cc1 | inconclusive [inhibitor, partial curve] | – |
| Cc1ccc(/C=C/C(=O)NC2=NCCS2)cc1 | – | inactive: 8.39% |
| Cc1cccc2sc(NC(=O)c3ccc(NS(=O)(=O)c4cccs4)cc3)nc12 | inconclusive [inhibitor, partial curve] | – |
| CCn1c(SCC(=O)NC(=O)NCc2ccco2)nc2sc(C)c(C)c2c1=O | inconclusive [inhibitor, partial curve] | – |
| COc1ccc2c(c1)CCc1c-2nc2ccccc2c1N1CCOCC1 | inconclusive [inhibitor, partial curve] | – |
| O=C(Nc1cccc(S(=O)(=O)N2CCCCCC2)c1)c1ccc2c(c1)OCO2 | inconclusive [inhibitor, partial curve] | – |
| CCNC(=O)Oc1ccc[nH]c1=O | inconclusive [inhibitor, single point] | – |
| O=S(=O)(c1cccc(Cl)c1)c1nnn2c1nc(NC1CCCC1)c1sccc12 | inconclusive [inhibitor, partial curve] | – |
| Cc1ccc(CCC(=O)Nc2ccc(S(N)(=O)=O)cc2)o1 | – | inactive: -7.83% |
